# Assay results published in the supplement of paper PMC4166925.
# ± gives the standard deviation of the averaged measurements. Over roughly 33,000 sequences, “E-score (dimensionless, -0.5 to 0.5)” has its median near -0.046; the highest 2% begin near 0.36. This is one part of the list.
# Test system: T1, SpTbr T-box DNA-binding domain (GST fusion)
# T1 sequence: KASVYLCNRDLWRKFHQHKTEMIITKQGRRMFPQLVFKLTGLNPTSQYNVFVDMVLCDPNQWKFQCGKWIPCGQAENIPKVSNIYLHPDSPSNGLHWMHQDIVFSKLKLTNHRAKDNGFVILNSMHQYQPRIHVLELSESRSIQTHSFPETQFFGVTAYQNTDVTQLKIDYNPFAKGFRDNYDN
# Test: PBM E-score of 8-mer (E-score (dimensionless, -0.5 to 0.5)); Tbr is Tbrain of the sea star Patiria miniata (Pm) or the sea urchin Strongylocentrotus purpuratus (Sp); higher = stronger binding preference; most listed sequences are background and not binding sites
# Conditions: the construct has about 5 more residues each side
# Procedure: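 Universal protein-binding microarray (Agilent AMADID 016060, 60-bp probes with a 35-bp variable region) incubated with 200 nM GST-fused Strongylocentrotus purpuratus Tbr T-box DNA-binding domain (residues 362-554) in PBS pH 7.5. Scored for every ungapped 8-mer (given with its reverse complement) as E-score (range -0.5 to 0.5; >0.45 counts as bound) and Z-score of median probe intensity. Two replicate arrays (datasets 1 and 2).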
# 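Further: protein at 200 nM in PBS on universal double-stranded arrays.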
row,Sequence,PBM E-score of 8-mer
1,CCAGCTAG,-0.162 ± 0.017
2,AGAAGAAG,-0.288 ± 0.087
3,CTCAGGCA,-0.202 ± 0.032
4,ATACAGAG,-0.0888 ± 0.041
5,GCCGCAAC,-0.0427 ± 0.063
6,AGTACGTG,0.175 ± 0.012
7,ATCAACGC,0.182 ± 0.019
8,GGTGCCCA,-0.0509 ± 0.059
9,GCTGACAA,0.227 ± 0.031
10,AAAATCCC,-0.226 ± 0.091
11,CTTGCAAC,0.0931 ± 0.0032
12,AAGCCTGA,-0.0652 ± 0.057
13,GTACTAGA,-0.127 ± 0.0062
14,CGCGGTCA,0.0538 ± 0.011
15,ACTTACAG,0.115 ± 0.089
16,ACATCGGG,0.0346 ± 0.041
17,GAACCTAC,-0.227 ± 0.015
18,ACTTAGTA,-0.0419 ± 0.028
19,ACTCCGTC,-0.0519 ± 0.05
20,GCCCGAAC,-0.163 ± 0.015
21,AGCTAGCC,-0.13 ± 0.019
22,CCTCAACC,-0.102 ± 0.052

row,Sequence,PBM E-score of 8-mer
1,CTCTCGGC,0.209 ± 0.025
2,AAGTGGGA,0.238 ± 0.037
3,GGAAGGAA,-0.211 ± 0.026
4,AGTCCCTC,-0.0691 ± 0.016
5,ACTTGTGA,0.412 ± 0.011
6,AAGGTATG,0.0236 ± 0.057
7,ATTCGAGA,0.0181 ± 0.075
8,GGTAGTAC,-0.311 ± 0.031
9,CTCCCGCA,-0.186 ± 0.1
10,GACATCAA,-0.0216 ± 0.048
11,ACCCACCC,0.106 ± 0.026
12,AGAAAGCA,-0.00139 ± 0.0029
13,TGAAAACA,0.06 ± 0.051
14,AACACAAG,0.0489 ± 0.098
15,CGGCTTGC,-0.14 ± 0.0054
16,AACACAGC,0.115 ± 0.086
17,ATCTATAC,-0.117 ± 0.0014
18,CCACTCCC,-0.0266 ± 0.047
19,CAGGCGGC,0.0345 ± 0.014
20,CATATCGA,-0.154 ± 0.056
21,GGTTGGGA,-0.274 ± 0.1
22,CTCAACAC,0.269 ± 0.022

row,Sequence,PBM E-score of 8-mer
1,ACACTTAT,0.402 ± 0.0068
2,ACCGTACT,-0.109 ± 0.043
3,AATCCTCT,-0.0232 ± 0.055
4,CACTTCAG,0.269 ± 0.049
5,ACCGTTGA,-0.159 ± 0.022
6,CTGACCCC,-0.2376 ± 0.0005
7,GAGCAAAA,-0.074 ± 0.036
8,CACTACGC,0.169 ± 0.05
9,ATCCAGGA,-0.0833 ± 0.056
10,TGACTACA,-0.075 ± 0.11
11,AACCATAC,-0.171 ± 0.013
12,CAACTGCG,0.13 ± 0.032
13,CTCCCTCC,0.00507 ± 0.0053
14,GAACAGCC,0.0705 ± 0.014
15,ACATTCGG,-0.177 ± 0.057
16,CACTTGGA,0.223 ± 0.026
17,AGAGTCAC,0.147 ± 0.082
18,ACTAGTAA,-0.158 ± 0.058
19,CAGGTAGG,0.0642 ± 0.056
20,AGATACTA,-0.212 ± 0.051
21,AGGCCCTA,-0.259 ± 0.014
22,GACTGAAA,0.039 ± 0.028

row,Sequence,PBM E-score of 8-mer
1,AGCCATCA,-0.12 ± 0.041
2,CGAAAACC,-0.297 ± 0.0092
3,AATATTAT,-0.0133 ± 0.0078
4,CGTTAACC,0.113 ± 0.07
5,TCTAGGAA,-0.24 ± 0.038
6,GAGAAAGA,-0.0698 ± 0.013
7,GGTTGGCA,0.175 ± 0.033
8,CTAAGTCA,-0.021 ± 0.041
9,CATTCGTC,-0.0309 ± 0.043
10,AATTCGCC,0.0743 ± 0.06
11,ATAGCTGC,0.0568 ± 0.00099
12,GCGGGCAA,-0.219 ± 0.011
13,CTACGTGA,0.0334 ± 0.011
14,CCCAACTA,-0.164 ± 0.083
15,CCCGAGAG,-0.0846 ± 0.014
16,ACTACGTA,-0.181 ± 0.067
17,CCCATCTA,-0.138 ± 0.0069
18,ACACCATA,0.231 ± 0.071
19,ATGATCCA,-0.103 ± 0.027
20,AGCATATC,0.0068 ± 0.022
21,GCGTTTGA,-0.0764 ± 0.061
22,AATATTGT,0.0494 ± 0.035

row,Sequence,PBM E-score of 8-mer
1,AATCTAAC,-0.00121 ± 0.0062
2,TAACCATA,-0.1302 ± 0.00064
3,AAAGAGGG,-0.0825 ± 0.036
4,CTGCCATA,0.0347 ± 0.0076
5,AGCGCTAC,0.128 ± 0.024
6,GTAGATGA,-0.143 ± 0.041
7,TGGATCCA,-0.189 ± 0.11
8,GGCGAAAC,-0.00507 ± 0.028
9,ATTTGCGC,0.146 ± 0.046
10,GATCCCAC,0.189 ± 0.043
11,AATCTTAG,-0.117 ± 0.033
12,AGTGTTAT,0.372 ± 0.045
13,GAGGACAA,0.00478 ± 0.025
14,ATAGCCCA,-0.13 ± 0.078
15,CCCCGCGA,0.179 ± 0.044
16,CCCTGACA,0.192 ± 0.032
17,CGGAGGTC,-0.151 ± 0.0063
18,TACAACGA,-0.274 ± 0.042
19,CAATTTGA,-0.174 ± 0.029
20,ATAAGCTC,-0.0656 ± 0.071
21,CGAAACCC,-0.0104 ± 0.06
22,ACACGCTG,0.132 ± 0.035
